The record followed here is patent US20230340152A1 (published 2023).

One experiment has as its target T1, Murine CD73 ECD (murine, UniProt Q61503 29-551, limits assumed).
T1 construct: extracellular domain; In-house recombinant ECD; also called murine CD73 extracellular domain; muCD73
T1 sequence (looked up): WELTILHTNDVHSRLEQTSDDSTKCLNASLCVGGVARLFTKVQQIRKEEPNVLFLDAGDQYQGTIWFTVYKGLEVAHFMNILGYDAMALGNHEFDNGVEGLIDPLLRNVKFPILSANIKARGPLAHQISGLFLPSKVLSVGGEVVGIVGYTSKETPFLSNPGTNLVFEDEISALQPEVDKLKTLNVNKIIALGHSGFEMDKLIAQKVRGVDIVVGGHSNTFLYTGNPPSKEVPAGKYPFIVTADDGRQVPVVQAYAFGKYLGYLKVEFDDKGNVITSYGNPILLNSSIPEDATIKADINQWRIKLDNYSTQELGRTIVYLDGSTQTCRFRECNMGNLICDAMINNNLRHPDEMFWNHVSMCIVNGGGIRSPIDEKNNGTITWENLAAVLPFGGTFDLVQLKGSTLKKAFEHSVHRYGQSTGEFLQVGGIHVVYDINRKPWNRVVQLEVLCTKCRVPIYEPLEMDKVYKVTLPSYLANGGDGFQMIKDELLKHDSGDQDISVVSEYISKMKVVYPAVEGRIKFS
Kind of experiment: direct ELISA, normalized Fab supernatant, vs CD730010 GL9. On the technique in general: An ELISA detects its analyte on a solid surface through an enzyme-linked reagent.

The target in a further experiment is T2, Human CD73 ECD (human, UniProt P21589 27-549).
T2 construct: Biotinylated in some assays; also called human CD73 extracellular domain; huCD73
T2 sequence: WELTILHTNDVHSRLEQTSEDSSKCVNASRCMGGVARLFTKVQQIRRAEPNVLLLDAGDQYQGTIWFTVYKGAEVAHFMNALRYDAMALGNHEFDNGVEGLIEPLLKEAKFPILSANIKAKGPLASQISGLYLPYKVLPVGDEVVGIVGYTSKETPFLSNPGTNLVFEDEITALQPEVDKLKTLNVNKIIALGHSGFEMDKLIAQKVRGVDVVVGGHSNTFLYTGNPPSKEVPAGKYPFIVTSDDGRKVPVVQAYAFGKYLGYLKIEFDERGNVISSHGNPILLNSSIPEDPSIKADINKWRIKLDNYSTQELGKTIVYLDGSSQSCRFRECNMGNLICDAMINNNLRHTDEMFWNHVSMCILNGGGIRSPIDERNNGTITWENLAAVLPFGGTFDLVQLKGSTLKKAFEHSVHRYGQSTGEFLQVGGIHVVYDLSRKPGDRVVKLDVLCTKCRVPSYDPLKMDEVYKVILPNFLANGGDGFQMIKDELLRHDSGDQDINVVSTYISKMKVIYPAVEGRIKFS
The experiment is described as above.

B1: CD730010 GL9 VH Y102A Fab (Fab, name in Kabat numbering, V domains shown)
VH: [not shown - about 100 residues]LGYSTIDAWGRGTLVTVSS
VL: QSVLTQPPSASGTPGQRVTISCSGSLSNIGRNPVNWYQQLPGTAPKLLIYLNNQRPSGVPDRFSGSKSGTSASLAISGLQSEDEADYYCATWDDSLNGWLFGGGTKLTVL
notes: Bacterial Fab, normalized supernatant
B1: the “ELISA signal, fold improvement over parental antibody” value (from here on “ELISA signal, fold improvement”) with Murine CD73 ECD amounted to 5 fold; with Human CD73 ECD, 6.6 fold.

B2: CD730010 GL9 VL L50F Fab (Fab, V domains shown)
VH: [not shown - about 100 residues]LGYSTIDYWGRGTLVTVSS
VL: QSVLTQPPSASGTPGQRVTISCSGSLSNIGRNPVNWYQQLPGTAPKLLIYFNNQRPSGVPDRFSGSKSGTSASLAISGLQSEDEADYYCATWDDSLNGWLFGGGTKLTVL
notes: as for B1
B2: the “ELISA signal, fold improvement” value turned out to be 1.4 fold with Murine CD73 ECD and 2.2 fold in the experiment with Human CD73 ECD.

B3: CD730010 GL9 VL N51D Fab (Fab, V domains shown)
VH: [not shown - about 100 residues]LGYSTIDYWGRGTLVTVSS
VL: QSVLTQPPSASGTPGQRVTISCSGSLSNIGRNPVNWYQQLPGTAPKLLIYLDNQRPSGVPDRFSGSKSGTSASLAISGLQSEDEADYYCATWDDSLNGWLFGGGTKLTVL
notes: as for B1
For the molecule B3, the “ELISA signal, fold improvement” value with Murine CD73 ECD was 4.5 fold; in the experiment with Human CD73 ECD, 8.9 fold.

B4: CD730010 GL9 VH Y102M Fab (Fab, name in Kabat numbering, V domains shown)
VH: [not shown - about 100 residues]LGYSTIDMWGRGTLVTVSS
VL: QSVLTQPPSASGTPGQRVTISCSGSLSNIGRNPVNWYQQLPGTAPKLLIYLNNQRPSGVPDRFSGSKSGTSASLAISGLQSEDEADYYCATWDDSLNGWLFGGGTKLTVL
notes: as for B1
In the case of B4, the figures for the “ELISA signal, fold improvement” value with Murine CD73 ECD and with Human CD73 ECD were 6.3 fold and 7.9 fold, respectively.

B5: CD730010 GL9 VL P55I Fab (Fab, V domains shown)
VH: [not shown - about 100 residues]LGYSTIDYWGRGTLVTVSS
VL: QSVLTQPPSASGTPGQRVTISCSGSLSNIGRNPVNWYQQLPGTAPKLLIYLNNQRISGVPDRFSGSKSGTSASLAISGLQSEDEADYYCATWDDSLNGWLFGGGTKLTVL
notes: as for B1
Regarding B5, the “ELISA signal, fold improvement” value worked out at 3.2 fold in the experiment with Murine CD73 ECD and 3.7 fold with Human CD73 ECD.

B6: CD730010 GL9 VL N51A Fab (Fab, V domains shown)
VH: [not shown - about 100 residues]LGYSTIDYWGRGTLVTVSS
VL: QSVLTQPPSASGTPGQRVTISCSGSLSNIGRNPVNWYQQLPGTAPKLLIYLANQRPSGVPDRFSGSKSGTSASLAISGLQSEDEADYYCATWDDSLNGWLFGGGTKLTVL
notes: as for B1
On to B6, for which the “ELISA signal, fold improvement” value with Murine CD73 ECD was 2.5 fold; with Human CD73 ECD, 6.7 fold.

B7: CD730010 GL9 VL P32G Fab (Fab, V domains shown)
VH: [not shown - about 100 residues]LGYSTIDYWGRGTLVTVSS
VL: QSVLTQPPSASGTPGQRVTISCSGSLSNIGRNGVNWYQQLPGTAPKLLIYLNNQRPSGVPDRFSGSKSGTSASLAISGLQSEDEADYYCATWDDSLNGWLFGGGTKLTVL
notes: as for B1
Regarding B7, the entries for the “ELISA signal, fold improvement” value in the experiment with Murine CD73 ECD and with Human CD73 ECD were 5.8 fold and 6.1 fold, respectively.

B8: CD730010 GL9 VL P32D Fab (Fab, V domains shown)
VH: [not shown - about 100 residues]LGYSTIDYWGRGTLVTVSS
VL: QSVLTQPPSASGTPGQRVTISCSGSLSNIGRNDVNWYQQLPGTAPKLLIYLNNQRPSGVPDRFSGSKSGTSASLAISGLQSEDEADYYCATWDDSLNGWLFGGGTKLTVL
notes: as for B1
Turning to B8, the “ELISA signal, fold improvement” value with Murine CD73 ECD amounted to 6.5 fold; in the experiment with Human CD73 ECD, 11.7 fold.

B9: CD730010 GL9 VH Y102Q Fab (Fab, name in Kabat numbering, V domains shown)
VH: [not shown - about 100 residues]LGYSTIDQWGRGTLVTVSS
VL: QSVLTQPPSASGTPGQRVTISCSGSLSNIGRNPVNWYQQLPGTAPKLLIYLNNQRPSGVPDRFSGSKSGTSASLAISGLQSEDEADYYCATWDDSLNGWLFGGGTKLTVL
notes: as for B1
For the molecule B9, the results for the “ELISA signal, fold improvement” value in the experiment with Murine CD73 ECD and with Human CD73 ECD were 3 fold and 3.6 fold, respectively.

B10: CD730010 GL9 VL P55L Fab (Fab, V domains shown)
VH: [not shown - about 100 residues]LGYSTIDYWGRGTLVTVSS
VL: QSVLTQPPSASGTPGQRVTISCSGSLSNIGRNPVNWYQQLPGTAPKLLIYLNNQRLSGVPDRFSGSKSGTSASLAISGLQSEDEADYYCATWDDSLNGWLFGGGTKLTVL
notes: as for B1
For the molecule B10, the entries for the “ELISA signal, fold improvement” value in the experiment with Murine CD73 ECD and with Human CD73 ECD were 4.3 fold and 5.7 fold, respectively.

B11: CD730010 GL9 VL P32A Fab (Fab, V domains shown)
VH: [not shown - about 100 residues]LGYSTIDYWGRGTLVTVSS
VL: QSVLTQPPSASGTPGQRVTISCSGSLSNIGRNAVNWYQQLPGTAPKLLIYLNNQRPSGVPDRFSGSKSGTSASLAISGLQSEDEADYYCATWDDSLNGWLFGGGTKLTVL
notes: as for B1
Consider B11, for which the figures for the “ELISA signal, fold improvement” value with Murine CD73 ECD and with Human CD73 ECD were 5.5 fold and 6 fold, respectively.

B12: CD730010 GL9 VH Y102L Fab (Fab, name in Kabat numbering, V domains shown)
VH: [not shown - about 100 residues]LGYSTIDLWGRGTLVTVSS
VL: QSVLTQPPSASGTPGQRVTISCSGSLSNIGRNPVNWYQQLPGTAPKLLIYLNNQRPSGVPDRFSGSKSGTSASLAISGLQSEDEADYYCATWDDSLNGWLFGGGTKLTVL
notes: as for B1
Regarding B12, the figures for the “ELISA signal, fold improvement” value with Murine CD73 ECD and in the experiment with Human CD73 ECD were 5.8 fold and 7.3 fold, respectively.

B13: CD730010 GL9 VH Y102K Fab (Fab, name in Kabat numbering, V domains shown)
VH: [not shown - about 100 residues]LGYSTIDKWGRGTLVTVSS
VL: QSVLTQPPSASGTPGQRVTISCSGSLSNIGRNPVNWYQQLPGTAPKLLIYLNNQRPSGVPDRFSGSKSGTSASLAISGLQSEDEADYYCATWDDSLNGWLFGGGTKLTVL
notes: as for B1
With B13, the “ELISA signal, fold improvement” value came out at 7.4 fold with Murine CD73 ECD and 9.9 fold with Human CD73 ECD.

B14: CD730010 GL9 VL N51Q Fab (Fab, V domains shown)
VH: [not shown - about 100 residues]LGYSTIDYWGRGTLVTVSS
VL: QSVLTQPPSASGTPGQRVTISCSGSLSNIGRNPVNWYQQLPGTAPKLLIYLQNQRPSGVPDRFSGSKSGTSASLAISGLQSEDEADYYCATWDDSLNGWLFGGGTKLTVL
notes: as for B1
As to B14, the “ELISA signal, fold improvement” value with Murine CD73 ECD was 2.3 fold; with Human CD73 ECD, 4.2 fold.

B15: CD730010 GL9 VL Q53F Fab (Fab, V domains shown)
VH: [not shown - about 100 residues]LGYSTIDYWGRGTLVTVSS
VL: QSVLTQPPSASGTPGQRVTISCSGSLSNIGRNPVNWYQQLPGTAPKLLIYLNNFRPSGVPDRFSGSKSGTSASLAISGLQSEDEADYYCATWDDSLNGWLFGGGTKLTVL
notes: as for B1
With B15, the “ELISA signal, fold improvement” value came out at 2.7 fold with Murine CD73 ECD and 4.1 fold with Human CD73 ECD.

B16: CD730010 GL9 VL P32E Fab (Fab, V domains shown)
VH: [not shown - about 100 residues]LGYSTIDYWGRGTLVTVSS
VL: QSVLTQPPSASGTPGQRVTISCSGSLSNIGRNEVNWYQQLPGTAPKLLIYLNNQRPSGVPDRFSGSKSGTSASLAISGLQSEDEADYYCATWDDSLNGWLFGGGTKLTVL
notes: as for B1
Turning to B16, the “ELISA signal, fold improvement” value in the experiment with Murine CD73 ECD was found to be 6.7 fold; with Human CD73 ECD, 27.7 fold.
